These results are taken from article PMC8060278 (Nature Communications, 2021).

This assay addresses T1, recombinant ligand-binding domain (LBD) of GPIbα (residues His1-Arg290) (human, UniProt P07359 17-306, biotin on the BioTag (…)).
T1 construct: also called GPIbα-LBD; biotinylated LBD; not shown: BioTag, N-terminal, kept
The assay can be described thus: BLI; biotinylated LBD loaded on streptavidin sensors (15 µg/mL); VWF fragments serially diluted from 1 μM to 15.6 nM; 23 °C, ForteBio kinetics buffer; heterogeneous-ligand global fit and steady-state hyperbola, apparent KD. The conditions noted are these: both partners purified. (In general: Biolayer interferometry detects binding as a change in optical thickness at a sensor tip.)

T1 sequence (P07359 17-306): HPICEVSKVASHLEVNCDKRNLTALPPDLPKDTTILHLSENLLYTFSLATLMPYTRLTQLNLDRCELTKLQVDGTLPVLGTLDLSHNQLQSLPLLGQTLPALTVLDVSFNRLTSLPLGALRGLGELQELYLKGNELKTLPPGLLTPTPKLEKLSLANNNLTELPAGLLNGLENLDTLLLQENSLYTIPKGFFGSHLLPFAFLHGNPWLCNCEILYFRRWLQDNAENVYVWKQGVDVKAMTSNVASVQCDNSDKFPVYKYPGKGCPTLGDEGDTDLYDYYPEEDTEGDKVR

B1: A1-CAIM (recombinant VWF fragment […]) (domain or fragment)
chain: not shown
notes: also called AIM-less protein
Take B1: the binding result is “binds”.

B2: tAIM-A1 (VWF […]) (domain or fragment)
chain: not shown
notes: source: baby hamster kidney cells as described (said of most recombinant VWF fragments), purified
As for B2, the binding result is recorded as “binds”.

B3: NAIM-A1 (VWF […]) (domain or fragment)
chain: not shown
notes: a BioSpy form also exists for the optical trap; also called AIM-less protein; source: baby hamster kidney cells as described (said of most recombinant VWF fragments), purified
Take B3: the binding result is “binds”.

B4: AIM-A1 H1268D (domain or fragment)
chain: not shown
notes: Site-directed mutagenesis is described under the BioSpy constructs (BioTag N-terminal, 10His-SpyTag C-terminal, Expi293F-BirA); source: baby hamster kidney cells as described (said of type 2B mutants), purified
For B4, the binding result is reported as “binds”.

B5: AIM-A1 R1341Q (domain or fragment)
chain: not shown
notes: as for B4
On to B5, for which the binding result is “binds”.
